Laboratory results published in PubChem BioAssay AID1346428 (National Center for Advancing Translational Sciences (NCATS), 2018).
Several values for one entry are separate records, joined by “and”; a condition that tells them apart may be missing. Equal values may be shown once. Among all 48,000 compounds or so, about 1,200 (2.5%) were called active. Roughly 2% stayed inconclusive and do not appear here.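 The calls were made as follows: active = activation of at least 60% and not above a set upper limit (about 1 call in 100 departs from these limits); inconclusive = activation of 40% to 60%, or above that upper limit; inactive = activation under 40%.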 This is one part of the list.

target: Probable G-protein coupled receptor 32 (Homo sapiens) (UniProt O75388); experiment: qHTS for Agonists of Human Resolvin D1 Receptor DRV1; conditions: CHO-K1 GPR32 beta-arrestin PathHunter luminescence, 90 min; at 76.9 µM; active compounds read high; zero percent set by DMSO-only wells; also: 0% is about no effect
Chain of UniProt O75388 (O75388 whole entry, looked up): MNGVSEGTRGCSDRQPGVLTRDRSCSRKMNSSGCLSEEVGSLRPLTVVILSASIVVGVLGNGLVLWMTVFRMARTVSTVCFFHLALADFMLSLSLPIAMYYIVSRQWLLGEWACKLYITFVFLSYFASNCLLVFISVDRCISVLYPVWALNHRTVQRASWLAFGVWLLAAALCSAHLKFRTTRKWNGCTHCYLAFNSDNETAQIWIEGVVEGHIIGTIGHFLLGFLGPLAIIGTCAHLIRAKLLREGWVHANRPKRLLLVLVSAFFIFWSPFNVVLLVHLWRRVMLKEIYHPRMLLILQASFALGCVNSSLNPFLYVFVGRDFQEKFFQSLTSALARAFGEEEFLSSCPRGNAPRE
Outline: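 Using DMSO wells as EC0, agonist-induced signal was taken as chemiluminescence from beta-Gal reconstituted upon beta-arrestin recruitment to GPR32 in CHO-K1 cells after 90 min compound treatment.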

Row | Structure (SMILES) | activation
1 | N=C(N)c1ccc(CS(=O)(=O)F)cc1 | inactive: -6.07%
2 | CC(C)(N)Cc1ccccc1Cl | inactive: 15.9%
3 | COC(=O)c1ccc(NC(=O)c2cccn(Cc3ccccc3C)c2=O)cc1 | inactive: 2.45%
4 | c1ccc2nc(N3CCNCC3)ccc2c1 | inactive: 18.7%
5 | Clc1ccc(CO/N=C(\Cn2ccnc2)c2ccc(Cl)cc2Cl)c(Cl)c1 | inactive: -105%
6 | O=C1NCN(c2ccccc2)C12CCN(CC1COc3ccccc3O1)CC2 (stereo not given) | inactive: 7.83% and inactive: -20.4%
7 | C[C@]12CC[C@H]3[C@@H](CCC4=CC(=O)CC[C@@H]43)[C@@H]1CC[C@@H]2OC(=O)CCc1ccccc1 | inactive: 45.3%
8 | Oc1ccc2c3c1O[C@H]1c4[nH]c5ccccc5c4C[C@@]4(O)C(C2)N(CC2CC2)CCC314 (stereo not given in full) | inactive: -24.2%
9 | Cc1ccc2c(c1)C1CN(C)CCC1N2 (stereo not given) | inactive: 5.59%
10 | CC(N)Cc1c[nH]c2ccc(OCc3cccs3)cc12 (stereo not given) | inactive: -10.7%
11 | CCC(=O)OC1(c2ccccc2)CCN(C)CC1 | inactive: -3.39%
12 | COc1ccc(OC)c(C(c2c(O)c3ccccc3oc2=O)c2c(C)n(C)n(-c3ccccc3)c2=O)c1 (stereo not given) | inactive: 7.42%
13 | CCc1cccc(NC(=O)CN2C(=O)CN=C(c3ccccc3F)c3cc(Cl)ccc32)c1 | inactive: -25%
14 | CN1CCC(c2c[nH]c3ccc(O)cc23)CC1 | inactive: 4.83%
15 | CC(C)[C@@]1(NC(=O)[C@@H]2C[C@@H]3c4cccc5[nH]cc(c45)C[C@H]3N(C)C2)O[C@@]2(O)[C@@H]3CCCN3C(=O)[C@H](Cc3ccccc3)N2C1=O | inactive: -17.8%
16 | CCN[C@@H](C)Cc1cccc(C(F)(F)F)c1 | inactive: 6.1%
17 | CNC(=O)NC(O)C(Cl)(Cl)Cl (stereo not given) | inactive: -11.2%
18 | NC(=O)CN1CC(O)CC1=O (stereo not given) | inactive: -5.57%
19 | CCOC(=O)NC(C)(C)Cc1ccc(Cl)cc1 | inactive: 33%
20 | CC(C)c1ccc(OCC(=O)N2CCN(CCc3ccncc3)CC2)cc1 | inactive: -5.28%

Row | Structure (SMILES) | activation
21 | COc1ccc(-n2c(/C=C\c3ccccc3F)nc3ccccc3c2=O)c(OC)c1 | inactive: -23.5%
22 | N#Cc1cc2c(nc1SCC(=O)Nc1ccc(C(F)(F)F)cc1)C1CCN2CC1 | inactive: 20.7%
23 | CSc1ccc(/C=C/c2nc3ccccc3c(=O)n2-c2cccc(Cl)c2C)cc1 | inactive: -14.4%
24 | Cc1ncc2n1-c1ccc(Cl)cc1C(c1ccccc1F)=NC2 | inactive: -8.85%
25 | O=C(O)c1cc(Oc2ccc(C(F)(F)F)cc2Cl)ccc1[N+](=O)[O-] | inactive: -23%
26 | Cc1cc(OCC(=O)N2CCN(CCc3ccncc3)CC2)ccc1Cl | inactive: 21.8%
27 | NC(=O)c1ccc(OCC(O)CN2CC=C(c3ccc(F)cc3)CC2)cc1 (stereo not given) | inactive: -3.8%
28 | CC(C)=CC1C(C(=O)OCc2cccc(Oc3ccccc3)c2)C1(C)C (stereo not given) | inactive: -0.0425%
29 | Cc1ccc(NC(=O)N(Cc2ccc3c(c2)OCO3)C2CCN(Cc3ccccc3)CC2)cc1C | inactive: 0.503%
30 | C[N+](C)(C)CC#CCN1CCCC1=O | inactive: -7.63%
31 | Nc1ccc(Sc2ccc(N)cc2)cc1 | inactive: -41%
32 | Cc1nnc2n1-c1sc(CCc3ccc(CC(C)C)cc3)cc1C(c1ccccc1Cl)=NC2C (stereo not given) | inactive: -45.6%
33 | COc1ccc(CNC(=O)/C=C/c2ccc3[nH]cc(CCN(C)C)c3c2)cc1 | inactive: 2.33%
34 | C=CCC1(C(C)CC)C(=O)NC(=O)NC1=O (stereo not given) | inactive: -0.21%
35 | CCOc1ccc(CN(CCc2ccc3c(c2)OCO3)Cc2cc(OC)ccc2O)cc1 | inactive: -39.7%
36 | C[N+]1(CCF)[C@@H]2CC[C@H]1CC(OC(=O)C(O)(c1ccccc1)c1ccccc1)C2 (stereo not given in full) | inactive: -5.87%
37 | Nc1ccncc1 | inactive: 27.5% and inactive: 1.95%
38 | O=C1CC[C@@]2(O)C3Cc4ccc(O)c5c4C2(CCN3CC2CC2)[C@H]1O5 (stereo not given in full) | inactive: -1.09%
39 | C[N+]1(C)CCOC(O)(c2ccc(-c3ccc(C4(O)C[N+](C)(C)CCO4)cc3)cc2)C1 (stereo not given) | inactive: -1.79%
40 | NC1(c2ccccc2)CCCCC1 | inactive: -1.54%

Row | Structure (SMILES) | activation
41 | O=C1c2ccccc2C(=O)C1C(=O)C(c1ccccc1)c1ccccc1 | inactive: 17.7%
42 | COc1ccc(-c2nc(CN3C(=O)CN=C(c4ccccc4)c4ccccc43)c(C)o2)cc1 | inactive: -20.3%
43 | CO[C@H]1CC=C2CCN3CCC4=C(CC(=O)OC4)[C@]23C1 | inactive: 0.998%
44 | Cc1cccc(-n2c(/C=C/c3c[nH]c4ccccc34)nc3ccccc3c2=O)c1 | inactive: 8.45%
45 | CSc1ccc(CN2CCN(C(=O)COc3cccc(C)c3)CC2)cc1 | inactive: -12.1%
46 | COc1ccc(OC)c(CC(C)N)c1 (stereo not given) | inactive: 10.3%
47 | Cc1cccc(Cn2cccc(C(=O)Nc3cc(C)on3)c2=O)c1 | inactive: 39.2%
48 | COc1ccc(C(=O)N2CCCC2=O)cc1 | inactive: -7.12% and inactive: 11.6%
49 | C=CCN1CCc2cccc3c2[C@H]1Cc1ccc(O)c(O)c1-3 | inactive: 8.14%
50 | Cc1[nH]c2ccc(O)cc2c1CCN | inactive: -5.66%
51 | C#CCOC(C(=O)OCCN(C)C)(c1ccccc1)c1ccccc1 | inactive: 1.59%
52 | CCS(=O)(=O)Nc1cccc(C(=C2CCCCC2)c2cnc[nH]2)c1 | inactive: -4.59%
53 | CC[C@@H](C(N)=O)N1CCCC1=O | inactive: -0.941%
54 | NCC(O)c1cc(O)c(O)cc1F (stereo not given) | inactive: 10.8%
55 | CCCCOC(=O)c1ccccc1C(=O)OCc1ccccc1 | inactive: -25%
56 | O=C(O)CCCc1ccc(N(CCCl)CCCl)cc1 | inactive: 36.7% and inactive: 10.4%
57 | C[C@H]1[C@@H]2Cc3ccc(O)cc3[C@@]1(C)CCN2C | inactive: 0.369%
58 | O=c1[nH]c2ccccc2n1CCCN1CCC(n2c(=O)[nH]c3cc(Cl)ccc32)CC1 | inactive: 35.3% and inactive: 6.65%
59 | COP(=S)(OC)Oc1ccc(SC)c(C)c1 | inactive: 22.2%
60 | Cc1ccc(NC(=O)N(Cc2ccc3c(c2)OCO3)C2CCN(Cc3ccccc3)CC2)cc1Cl | inactive: -8.07%
